± gives the standard deviation. The entries are a selection whose mix differs from that of the whole data set.
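Note: 1 nM active piRISC with 0.1 nM target library at 33 °C single turnover.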

This experiment concerns MIWI (PIWIL1) piRISC loaded with piRNA #1 (30 nt). Nature of the experiment: pre-steady-state target cleavage rate (min^-1); MIWI and MILI are mouse PIWI proteins and EfPiwi is from a freshwater sponge; tags in brackets are library labels; higher = faster piRNA-guided slicing of the target. The settings on record: guide: piRNA #1 5'p-UGAGGUAGUAGGUUGUAUAGUAUCCAGAGG; auxiliary factor: 500 nM mouse GTSF1. In short, it runs like this: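 Cleave-'n-Seq measured uncleaved targets by sequencing after a transcribed, DNA-blocked target RNA library […] was mixed with 1 nM active affinity-purified piRISC holding one synthetic guide, with or without 500 nM GTSF1 partner protein, at 33 °C in HEPES–potassium acetate buffer for 0–8 or 0–960 min. Counts were normalised to depth and to weakly complementary targets, three trials were pooled, and k3 was capped at 0.0001 min^-1. A burst-and-steady-state fit gave the pre-steady-state cleavage rate.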
In the case of GCUCUGCAUACUAUAGAACCUACUACCUCA, the “pre-steady-state target cleavage rate” value was 1.05 ± 0.063.

GCUCUGGAUACUAUACAACCUACUAACUCA: the “pre-steady-state target cleavage rate” value was determined as 1.3 ± 0.085.

On to GGAGAGGAUACUAUACAACGAACUACCUCA, for which the “pre-steady-state target cleavage rate” value was 0.0206 ± 0.0037.

Take GGUCAGGAUACUAUACAACCAACUACCUCA: the “pre-steady-state target cleavage rate” value worked out at 0.165 ± 0.016.

As for GGAGUGGUUACUAUACAACCUACUACCACA, the “pre-steady-state target cleavage rate” value worked out at 0.427 ± 0.039.

Turning to GGAGACCAUACUAUACAACCUACUACCCA, the “pre-steady-state target cleavage rate” value was 0.47 ± 0.044.

Regarding GGACUGGAAACUAUACAACCUACUAGCUCA, the “pre-steady-state target cleavage rate” value came to 0.0121 ± 0.0032.

For the sequence GGAGACCUAUCUAUACAACCUACUACCUACA, the “pre-steady-state target cleavage rate” value turned out to be 0.629 ± 0.058.

As for GGAGACCUAUCUAUACAAGCUACUACCACA, the “pre-steady-state target cleavage rate” value was 0.48 ± 0.039.

GGAGACCAUUCUAUUCAACCUACUACCUCA: the “pre-steady-state target cleavage rate” value turned out to be 0.548 ± 0.058.

Regarding GGAGACCUAUCUAUACAACCUACUACCUGCA, the “pre-steady-state target cleavage rate” value came to 0.853 ± 0.073.

With GGUCUGGAUACUAUACAACGUACUAGCUCA, the “pre-steady-state target cleavage rate” value stood at 0.0477 ± 0.014.

Consider GGAGUGGAUACAAUACAACGUACUACCUCA, for which the “pre-steady-state target cleavage rate” value amounted to 0.454 ± 0.035.

CCUCUGGAUUCUUUACAACCUACUACCUCA: the “pre-steady-state target cleavage rate” value amounted to 0.729 ± 0.066.

For the sequence GGACUGGAUACUAUUCAACCUUCUACCUCA, the “pre-steady-state target cleavage rate” value was determined as 0.578 ± 0.04.

As for GGAGACCAUACUAUACAACCUACUACUCA, the “pre-steady-state target cleavage rate” value came to 1.21 ± 0.08.

Regarding GGAGACCUAACAAUACAACCUACUACCUGA, the “pre-steady-state target cleavage rate” value stood at 0.00542 ± 0.0049.

Regarding GGAGACGAUACUAUACGACCUACUACCUCA, the “pre-steady-state target cleavage rate” value came out at 1.26 ± 0.063.

GGACUGGAAUACUAUACAACCUACUACCUCA: the “pre-steady-state target cleavage rate” value came to 1.62 ± 0.12.

Take GGAGACCUUACUAUACAACCUACUGCCUCA: the “pre-steady-state target cleavage rate” value amounted to 0.883 ± 0.077.

GGAGAGGAUACUAUACAAGCAACUACCUCA: the “pre-steady-state target cleavage rate” value stood at 0.0316 ± 0.0065.

For the sequence GGAGACCAUACUAUAGAAGCUACUACCUCA, the “pre-steady-state target cleavage rate” value was 0.242 ± 0.027.

Turning to GGAGACCUAUGUAUACAACCUACUACCUUA, the “pre-steady-state target cleavage rate” value came to 0.227 ± 0.032.

Take CCUCUGGAAACUAUACAACCUACUACGUCA: the “pre-steady-state target cleavage rate” value stood at 1.28 ± 0.1.

Values taken from the supplement of paper PMC10338343.
